Assay results published in PubChem BioAssay AID2112 (National Center for Advancing Translational Sciences (NCATS), 2009).
Among all 240,000 compounds or so, about 15 (0.006%) were called active. Inconclusive results, whose numbers are uncertain, are shown with a selection of clear calls. Calls follow the shape of the dose curve; as a rule, active = well fitted inhibition curve with a large enough effect; inconclusive = small, poorly fitted or top-dose-only effect, or effect the other way, or another doubt; inactive = no such curve, though single readings can be large or run the other way. Potencies of inconclusive entries are left out as doubtful fits.
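For activity change, negative = inhibition in this document: 0% = enzyme with vehicle and -100% = no enzyme basal signal.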
Potency is read from the fitted curve at half-maximal effect; tags tell the direction and shape of the fitted curve.

Each compound was assayed against Lysosomal alpha-glucosidase (Homo sapiens) (UniProt P10253) (assay: qHTS Assay for Inhibitors and Activators of Human alpha-Glucosidase From Spleen Homogenate). Conditions: 4-MU-alpha-glucoside fluorescence; series mostly up to 79.9 µM; activity change, negative = inhibition: at the top concentration.
Method in brief: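 Human spleen homogenate (1 ug) with 4-methylumbelliferyl-alpha-D-glucopyranoside (1 mM final) in 50 mM citrate/phosphate pH 5.0, 0.01% Tween-20; 40 min at 37 C. Stopped at pH 10; 4-MU fluorescence Ex 365/Em 440 nm; AC50 by Hill fit.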
`Cc1cc(C)c2c(-n3cccc3)c(C(=O)NNS(=O)(=O)c3ccc(Br)cc3)sc2n1` was tested, and the “activity change, negative = inhibition” value was inactive: -5.67%.
With `COc1ccc(C2CC(c3ccccc3)=NN2c2ccc(S(N)(=O)=O)cc2)cc1` (stereo unspecified) the Potency was inconclusive [activator, partial curve].
`O=C(c1cc2c(ccc3ccccc32)oc1=O)N1CCN(CCO)CC1` was tested, and the Potency was inconclusive [activator, single point].
For `CC(C)[C@@H](CO)NC(=O)c1ccc2c3n(nc2c1)-c1ccc(Cl)cc1CO3`, the Potency was inconclusive [inhibitor, partial curve].
For `COc1ccc(C(O)C2=CCCC2=O)cc1` (stereo unspecified), the Potency was “inactive”.
With `CCN(CC)c1nc(N)c([N+](=O)[O-])c(NCCO)n1` the Potency was inconclusive [inhibitor, single point].
`COc1cccc([C@@H]2Oc3ccc(Br)cc3C[C@H]2O)c1` was tested, and the “activity change, negative = inhibition” value was inactive: -8.3%.
In the case of `C1CCC[C@H]2CCCN3CC[C@H](CCCCCC[C@@H]4CCCN5CC[C@H](CC1)OC45)OC23`, the “activity change, negative = inhibition” value is reported as inactive: -6.96%.
For `COC1[C@@H](OC)C[C@H](C)[C@@H](OC)C2=CC(=O)C=C(NC(=O)/C(C)=C/C=C\[C@H](OC)[C@@H](OC(N)=O)/C(C)=C/[C@@H]1C)C2=O` (stereo partly specified), the “activity change, negative = inhibition” value was inactive: -6.63%.
With `N#Cc1ccc2c(c1)nc1ccccn12` the Potency was inconclusive [activator, single point].
For `CC1S/C(=N\N=C\c2cccc([N+](=O)[O-])c2)N(C(C)(C)C)C1=O` (stereo unspecified), the Potency was inconclusive [inhibitor, partial curve].
For `c1coc(-c2nc3nc4ccccc4nc3n2CC2CCCO2)c1` (stereo unspecified), the Potency was inconclusive [activator, full curve].
With `CC(NC(=O)OC(C)(C)C)C(=O)Oc1ccc2ccc(=O)oc2c1` (stereo unspecified) the Potency was inconclusive [activator, partial curve].
For `Cn1cccc1C(=O)OCC(=O)Nc1cc(C(C)(C)C)nn1-c1ccccc1`, the Potency was inconclusive [inhibitor, partial curve].
For `Cc1nn(C)c(N)c1[N+](=O)[O-]`, the “activity change, negative = inhibition” value was inactive: -6.66%.
For `Cc1c(CCO)c(=O)n(-c2ccccc2)n1S(=O)(=O)c1c(Cl)cc(Cl)cc1Cl`, the “activity change, negative = inhibition” value was inactive: -2.95%.
For `C(=N\N1CCN(C2c3ccccc3-c3ccccc32)CC1)/c1cccnc1`, the “activity change, negative = inhibition” value was inactive: -8.51%.
With `CCC(C)n1c(-c2ccco2)nc2nc3ccccc3nc21` (stereo unspecified) the Potency was inconclusive [activator, partial curve, poor fit].
With `CCOC(=O)C(CC)(CCC(=O)O)c1csc(Nc2ccc(C)cc2)n1` (stereo unspecified) the Potency was inconclusive [activator, single point].
In the case of `Cc1ccc(N=c2oc3cc(O)ccc3cc2C(N)=O)cc1`, the Potency is reported as inconclusive [activator, partial curve].
With `CCOc1ccc(C2C(C#N)=C(N)SC(N)=C2C#N)cc1OC` the “activity change, negative = inhibition” value was inactive: -7.99%.
For `O=C(N/N=C/c1c(O)n(-c2ccccc2)c(=O)[nH]c1=O)c1ccncc1`, the Potency was inconclusive [inhibitor, single point].
In the case of `O=C(Nc1ccc([N+](=O)[O-])cc1O)Nc1ccccc1Br`, the “activity change, negative = inhibition” value is reported as inactive: 12.5%.
`C[C@@]12CCC[C@H]1C1CC[C@H]3C[C@H](O)CC[C@]3(C)C1CC2` (stereo partly specified) was tested, and the “activity change, negative = inhibition” value was inactive: 0.901%.
With `O=C1CCN(CCc2ccccc2)CCN1C(CSc1ccc(Br)cc1)c1ccccc1` (stereo unspecified) the “activity change, negative = inhibition” value was inactive: 8.08%.
In the case of `CCOC(=O)c1cc2c(C)n(-c3ccc(C)cc3)c(C)c2ccc1=O`, the “activity change, negative = inhibition” value is reported as inactive: -4.51%.
With `Cn1c(=O)n2n(c1=O)[C@H]1[C@H](O)[C@H]3O[C@@H]3/C(=N/OCc3ccccc3)[C@@H]1CC2` the activity change, negative = inhibition was inactive: 1.69% [at 17.4 µM].
`N#Cc1c(N)n(-c2ccc(C(=O)O)cc2)c2nc3ccccc3nc12` was tested, and the Potency was inconclusive [activator, partial curve].
In the case of `Nc1nc2nc(-c3cccs3)cc(C(F)(F)F)n2n1`, the Potency is reported as inconclusive [activator, partial curve].
With `Cn1c(O)c(N=Nc2ccc(S(=O)(=O)N3CCOCC3)cc2)c(=O)n(C)c1=O` the Potency was inconclusive [inhibitor, single point].
For `CCN1C=C(C(=O)OC)C(c2cccc(C)c2)C(C(=O)OC)=C1`, the Potency was inconclusive [activator, partial curve].
`CCOC(=O)N1CCN(S(=O)(=O)c2ccc(C)cc2)C1` was tested, and the “activity change, negative = inhibition” value was inactive: 0.494%.
For `O=C(CN1CCN(c2ccccn2)CC1)Nc1ccc(Cl)c(C(F)(F)F)c1`, the Potency was inconclusive [inhibitor, single point].
`CC(=O)c1ccc(-c2nc3ccccc3n2C)o1` was tested, and the Potency was inconclusive [activator, single point].
In the case of `CCOc1cc(C2C3=C(CCCC3=O)N(CCC(=O)O)C3=C2C(=O)CCC3)ccc1OS(=O)(=O)c1ccc(C)cc1`, the Potency is reported as inconclusive [activator, single point].
For `Cc1c(NC2=NC3(CCCCC3)Cc3ccccc32)c(=O)n(-c2ccccc2)n1C`, the Potency was inconclusive [inhibitor, single point].
In the case of `O=C1C2C3C=CC(C4CC34)C2C(=O)N1/N=C/c1ccc(-c2ccc([N+](=O)[O-])cc2)o1` (stereo unspecified), the Potency is reported as inconclusive [inhibitor, full curve, poor fit].
With `CCOC(=O)N1CCN(C(=O)Nc2sc3nc4n(c(=O)c3c2C)CCC(C)CC4)CC1` (stereo unspecified) the “activity change, negative = inhibition” value was inactive: -4.14%.
In the case of `CCN(CC)Cc1c(O)ccc2c(C)c(CC(=O)OC)c(=O)oc12`, the Potency is reported as inconclusive [activator, partial curve].
In the case of `CC(=O)NCCNc1nc(-c2cccnc2)nc2ccccc12`, the “activity change, negative = inhibition” value is reported as inactive: 11%.
In the case of `CCOc1cc(CNc2ccccc2SC)ccc1O`, the “activity change, negative = inhibition” value is reported as inactive: 5.93%.
